# Measurements published in the supplement of paper PMC8728848.
# The list shows a part of the results.
# What was measured:
# Experiment in all cases: glycan array binding signal (z-score within array); higher = stronger binding
# Details in all cases: glycan notation: IUPAC condensed, linker removed
# [1] = target: GlcNAc(b1-4)[GlcNAc(b1-6)]GalNAc
# In short: (§1)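 The binding signal is a Z-score computed within each array and averaged over linkers. Arrays of the same protein sequence at different concentrations or buffers were also averaged together. Data originate from 3228 arrays in the Consortium for Functional Glycomics database, kept only where the protein sequence was available.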
# [2] = target: GlcNAc(b1-6)Gal(b1-4)GlcNAc
# In short: as §1
# [3] = target: GlcNAc(b1-6)GalNAc
# In short: as §1
# [4] = target: Kdn(a2-3)Gal(b1-3)GlcNAc
# In short: as §1
# [5] = target: Kdn(a2-3)Gal(b1-4)GlcNAc
# In short: as §1
# [6] = target: Man(a1-2)Man(a1-2)Man(a1-3)Man
# In short: as §1
# [7] = target: Man(a1-2)Man(a1-2)Man(a1-3)[Man(a1-2)Man(a1-3)[Man(a1-2)Man(a1-6)]Man(a1-6)]Man(b1-4)GlcNAc(b1-4)GlcNAc
# In short: as §1
# [8] = target: Man(a1-2)Man(a1-2)Man(a1-3)[Man(a1-2)Man(a1-6)[Man(a1-3)]Man(a1-6)]Man(b1-4)GlcNAc(b1-4)GlcNAc
# In short: as §1
# [9] = target: Man(a1-2)Man(a1-2)Man(a1-6)[Man(a1-3)]Man
# In short: as §1
# [10] = target: Man(a1-2)Man(a1-3)Man
# In short: as §1
# [11] = target: Man(a1-2)Man(a1-3)[Man(a1-2)Man(a1-6)]Man
# In short: as §1
# [12] = target: Man(a1-2)Man(a1-3)[Man(a1-3)[Man(a1-6)]Man(a1-6)]Man(b1-4)GlcNAc(b1-4)GlcNAc
# In short: as §1
# [13] = target: Man(a1-2)Man(a1-3)[Man(a1-6)]Man(a1-6)[Man(a1-2)Man(a1-3)]Man(b1-4)GlcNAc(b1-4)GlcNAc
# In short: as §1
# [14] = target: Man(a1-3)[Man(a1-6)]Man
# In short: as §1
# [15] = target: Man(a1-3)[Man(a1-6)]Man(a1-6)[Man(a1-3)]Man(b1-4)GlcNAc(b1-4)GlcNAc
# In short: as §1
# [16] = target: Man(a1-3)[Man(a1-6)]Man(b1-4)GlcNAc(b1-4)GlcNAc
# In short: as §1
# [17] = target: Man(b1-4)GlcNAc
# In short: as §1
# [18] = target: Neu5Ac(a2-3)Gal
# In short: as §1
# [19] = target: Neu5Ac(a2-3)Gal(b1-3)GalNAc
# In short: as §1
# [20] = target: Neu5Ac(a2-3)Gal(b1-3)GalNAc(b1-3)Gal(a1-4)Gal(b1-4)Glc
# In short: as §1
# [21] = target: Neu5Ac(a2-3)Gal(b1-3)GalNAc(b1-4)[Neu5Ac(a2-3)]Gal(b1-4)Glc
# In short: as §1
# [22] = target: Neu5Ac(a2-3)Gal(b1-3)GalNAc6S
# In short: as §1
# [23] = target: Neu5Ac(a2-3)Gal(b1-3)GlcNAc
# In short: as §1
# [24] = target: Neu5Ac(a2-3)Gal(b1-3)GlcNAc(b1-3)Gal(b1-4)GlcNAc
# In short: as §1
# [25] = target: Neu5Ac(a2-3)Gal(b1-3)GlcNAc6S
# In short: as §1
# [26] = target: Neu5Ac(a2-3)Gal(b1-3)[Fuc(a1-4)]GlcNAc
# In short: as §1
# [27] = target: Neu5Ac(a2-3)Gal(b1-3)[Fuc(a1-4)]GlcNAc(b1-3)Gal(b1-4)[Fuc(a1-3)]GlcNAc
# In short: as §1
# [28] = target: Neu5Ac(a2-3)Gal(b1-3)[Neu5Ac(a2-3)Gal(b1-4)]GlcNAc
# In short: as §1
# [29] = target: Neu5Ac(a2-3)Gal(b1-3)[Neu5Ac(a2-6)]GalNAc
# In short: as §1
# [30] = target: Neu5Ac(a2-3)Gal(b1-4)Glc
# In short: as §1
# [31] = target: Neu5Ac(a2-3)Gal(b1-4)GlcNAc
# In short: as §1
# [32] = target: Neu5Ac(a2-3)Gal(b1-4)GlcNAc(b1-3)Gal(b1-4)GlcNAc
# In short: as §1
# [33] = target: Neu5Ac(a2-3)Gal(b1-4)GlcNAc(b1-3)Gal(b1-4)GlcNAc(b1-3)Gal(b1-4)GlcNAc
# In short: as §1
# [34] = target: Neu5Ac(a2-3)Gal(b1-4)GlcNAc(b1-3)Gal(b1-4)[Fuc(a1-3)]GlcNAc
# In short: as §1
binder,measurement,setting,value
CVNH3T (Magnaporthe grisea) (protein) GSHIGPYGNYAGNFSGSSRDICLDGARLRAECRRGDGGYSTSVIDLNRYLSNDNGHFRWVSGGGGGGGTATVTVQQGDTLRDIGRRFDCDFHEIARRNNIQNEDLIYPGQVLQVPTKGGSGGGAGNFWDSARDVRLVDGGKVLEAELRYSGGWNRSRIYLDEHIGNRNGELIHC,glycan array binding signal (z-score),[1],-0.223
same,glycan array binding signal (z-score),[2],-0.225
same,glycan array binding signal (z-score),[3],-0.239
same,glycan array binding signal (z-score),[4],-0.217
same,glycan array binding signal (z-score),[5],-0.232
same,glycan array binding signal (z-score),[6],-0.17
same,glycan array binding signal (z-score),[7],-0.232
same,glycan array binding signal (z-score),[8],-0.201
same,glycan array binding signal (z-score),[9],-0.17
same,glycan array binding signal (z-score),[10],-0.215
same,glycan array binding signal (z-score),[11],-0.22
same,glycan array binding signal (z-score),[12],-0.193
same,glycan array binding signal (z-score),[13],-0.222
same,glycan array binding signal (z-score),[14],-0.192
same,glycan array binding signal (z-score),[15],-0.23
same,glycan array binding signal (z-score),[16],-0.173
same,glycan array binding signal (z-score),[17],-0.199
same,glycan array binding signal (z-score),[18],-0.231
same,glycan array binding signal (z-score),[19],-0.243
same,glycan array binding signal (z-score),[20],6.23
same,glycan array binding signal (z-score),[21],-0.185
same,glycan array binding signal (z-score),[22],-0.23
same,glycan array binding signal (z-score),[23],-0.152
same,glycan array binding signal (z-score),[24],-0.24
same,glycan array binding signal (z-score),[25],-0.233
same,glycan array binding signal (z-score),[26],-0.241
same,glycan array binding signal (z-score),[27],0.849
same,glycan array binding signal (z-score),[28],-0.242
same,glycan array binding signal (z-score),[29],-0.191
same,glycan array binding signal (z-score),[30],-0.195
same,glycan array binding signal (z-score),[31],-0.144
same,glycan array binding signal (z-score),[32],-0.23
same,glycan array binding signal (z-score),[33],-0.24
same,glycan array binding signal (z-score),[34],-0.236
